# According to a collection of fitness landscapes (doi:10.1016/j.celrep.2020.107928):
# Whole data set: some 81,000 sequences, median “one-hybrid fitness for binding parS DNA” near -0.17, cut for the highest 2% near 0.51. This is one part of the list.
# B1: Caulobacter ParB omega fusion; a variant is named by its letters at X, in order, B8GW30 (parent)
# chain: MESVVVGEPGMSEGRRGLGRGLSALLGEVDAAPAQAPGEQLGGSREAPIEILQRNPDQPRRTFREEDLEDLSNSIREKGVLQPILVRPSPDTAGEYQIVAGERAWRAAQRAGLKTVPIMVRELDDLAVLEIGIIENVQRADLNVLEEALSYKVLMEKFERTQENIAQTIGKSXSHVANXMRLLXLPDEVQSYLVSGELTAXHARAIAAAADPVALAKQIIEGGLSVRETEALARKAPNLSAGKSKGGRPPRVKDTDTQALESDLSSVLGLDVSIDHRGSTGTLTITYATLEQLDDLCNRLTRGI
# Variants of: B1
# Test: one-hybrid fitness for binding parS DNA (scaled: cognate 1, non-cognate 0); higher = stronger binding
# Conditions: with parS DNA site
# In short: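 Values were rescaled so that cognate is 1 and non-cognate is 0. Each is a fitness, the log change in a variant's read ratio to wild type from Illumina reads of plasmids before and after selection, with three replicate libraries pooled and variants under 10 reads dropped. Selection of the Caulobacter ParB libraries, four specificity codons randomised, used E. coli USO with a HIS3 reporter, site 19 bp from the promoter, on M9-minus-histidine with 0.1 mM IPTG and 5 mM 3-AT for 48 hours at 37°C.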
row,Variant,one-hybrid fitness for binding parS DNA
1,ICAG,≤ 0.2
2,NFKP,≤ 0.2
3,WKTS,≤ 0.2
4,RNEV,≤ 0.2
5,QQLN,≤ 0.2
6,IKRV,≤ 0.2
7,TADV,≤ 0.2
8,KLPG,≤ 0.2
9,AWKV,≤ 0.2
10,EVST,≤ 0.2
11,QVMT,≤ 0.2
12,DSVS,≤ 0.2
13,RQIC,0.735
14,DGNT,≤ 0.2
15,VRWT,≤ 0.2
16,RQWD,≤ 0.2
17,EARM,≤ 0.2
18,RCLF,0.256
19,LNNC,≤ 0.2
20,EYDV,≤ 0.2
21,HLMG,≤ 0.2
22,MKYK,≤ 0.2
23,QLHW,≤ 0.2
24,TYAI,≤ 0.2
25,TVMG,≤ 0.2
26,HAAN,≤ 0.2

row,Variant,one-hybrid fitness for binding parS DNA
1,FHAC,≤ 0.2
2,HFCC,≤ 0.2
3,CWPL,≤ 0.2
4,AIIT,≤ 0.2
5,QRAQ,≤ 0.2
6,QITE,≤ 0.2
7,VSCS,≤ 0.2
8,NPPY,≤ 0.2
9,ELPF,≤ 0.2
10,QKEM,≤ 0.2
11,NLNC,≤ 0.2
12,STNG,≤ 0.2
13,ESWE,≤ 0.2
14,WDEG,≤ 0.2
15,KQEN,≤ 0.2
16,AVLY,≤ 0.2
17,AVMG,≤ 0.2
18,TNIM,≤ 0.2
19,QTGW,≤ 0.2
20,DTSK,≤ 0.2
21,QHQF,≤ 0.2
22,HMDG,≤ 0.2
23,WFTS,≤ 0.2
24,RCHF,0.297
25,IHVW,≤ 0.2
26,TGNS,≤ 0.2

row,Variant,one-hybrid fitness for binding parS DNA
1,IQLT,≤ 0.2
2,TLST,≤ 0.2
3,LHRF,≤ 0.2
4,EGCS,≤ 0.2
5,SREP,≤ 0.2
6,DHRI,≤ 0.2
7,LHLI,≤ 0.2
8,PGNA,≤ 0.2
9,DSRV,≤ 0.2
10,TRSY,≤ 0.2
11,YWRY,≤ 0.2
12,PPVM,≤ 0.2
13,NTFR,≤ 0.2
14,GETI,≤ 0.2
15,PRTY,≤ 0.2
16,WSKY,≤ 0.2
17,MAYG,≤ 0.2
18,ILEG,≤ 0.2
19,RYPY,≤ 0.2
20,MWST,≤ 0.2
21,PRNL,≤ 0.2
22,YEHT,≤ 0.2
23,NALT,≤ 0.2
24,HETC,≤ 0.2
25,PWES,≤ 0.2
26,GDCS,≤ 0.2

row,Variant,one-hybrid fitness for binding parS DNA
1,PRDC,≤ 0.2
2,LIDI,≤ 0.2
3,SAQA,≤ 0.2
4,PIMS,≤ 0.2
5,DKAG,≤ 0.2
6,NYLG,≤ 0.2
7,EKQI,0.237
8,LHMN,≤ 0.2
9,TPTW,≤ 0.2
10,LVGG,≤ 0.2
11,YFSA,≤ 0.2
12,RMAK,≤ 0.2
13,VCAR,≤ 0.2
14,TNHT,≤ 0.2
15,TILF,≤ 0.2
16,SQYQ,≤ 0.2
17,CGPF,≤ 0.2
18,NDSG,≤ 0.2
19,RRRK,≤ 0.2
20,WRET,≤ 0.2
21,CLHH,≤ 0.2
22,SLCD,≤ 0.2
23,LVFY,≤ 0.2
24,RNDI,≤ 0.2
25,MTRV,≤ 0.2
26,SKVG,≤ 0.2

row,Variant,one-hybrid fitness for binding parS DNA
1,TCRR,≤ 0.2
2,LPND,≤ 0.2
3,LSYH,≤ 0.2
4,GMRG,≤ 0.2
5,VAQS,0.225
6,WLNV,≤ 0.2
7,TTPY,≤ 0.2
8,CEAS,≤ 0.2
9,PRGI,≤ 0.2
10,AHYC,≤ 0.2
11,MMRR,≤ 0.2
12,PTAH,≤ 0.2
13,RFMH,≤ 0.2
14,KQNV,≤ 0.2
15,SHFV,≤ 0.2
16,ATLK,≤ 0.2
17,SVVK,≤ 0.2
18,ETLC,≤ 0.2
19,TAAS,≤ 0.2
20,THQD,≤ 0.2
21,WKPS,≤ 0.2
22,LYFG,≤ 0.2
23,KLVD,≤ 0.2
24,HSGI,≤ 0.2
25,RGIS,0.524
26,DPKD,≤ 0.2

row,Variant,one-hybrid fitness for binding parS DNA
1,DAPV,≤ 0.2
2,FDLS,≤ 0.2
3,CNFF,≤ 0.2
4,IHYV,≤ 0.2
5,RTVI,≤ 0.2
6,PPTK,≤ 0.2
7,QFAR,≤ 0.2
8,CINV,≤ 0.2
9,LYSC,≤ 0.2
10,MPIR,≤ 0.2
11,LAGI,≤ 0.2
12,RTRC,0.826
13,AAVR,≤ 0.2
14,SGAC,≤ 0.2
15,KVFY,≤ 0.2
16,LSYI,≤ 0.2
17,IPNF,≤ 0.2
18,PDFC,≤ 0.2
19,LKLP,≤ 0.2
20,NIWR,≤ 0.2
21,VLKW,≤ 0.2
22,HSWG,≤ 0.2
23,FKYG,≤ 0.2
